{"source": "paper PMC11157048", "about": "“The influence of drug-induced metabolic enzyme activity inhibition and CYP3A4 gene polymorphism on aumolertinib metabolism” (Frontiers in Pharmacology, 2024)", "proteins": {"B1": {"name": "CYP3A4.24 (Homo sapiens; Q200H) (protein)", "chain": "MALIPDLAMETWLLLAVSLVLLYLYGTHSHGLFKKLGIPGPTPLPFLGNILSYHKGFCMFDMECHKKYGKVWGFYDGQQPVLAITDPDMIKTVLVKECYSVFTNRRPFGPVGFMKSAISIAEDEEWKRLRSLLSPTFTSGKLKEMVPIIAQYGDVLVRNLRREAETGKPVTLKDVFGAYSMDVITSTSFGVNIDSLNNPHDPFVENTKKLLRFDFLDPFFLSITVFPFLIPILEVLNICVFPREVTNFLRKSVKRMKESRLEDTQKHRVDFLQLMIDSQNSKETESHKALSDLELVAQSIIFIFAGYETTSSVLSFIMYELATHPDVQQKLQEEIDAVLPNKAPPTYDTVLQMEYLDMVVNETLRLFPIAMRLERVCKKDVEINGMFIPKGVVVMIPSYALHRDPKYWTEPEKFLPERFSKKNKDNIDPYIYTPFGSGPRNCIGMRFALMNMKLALIRVLQNFSFKPCKETQIPLKLSLGGLLQPEKPVVLKVESRDGTVSGA"}, "B2": {"name": "CYP3A4.28 (Homo sapiens; L22V) (protein)", "chain": "B1 chain with L22V, H200Q"}, "B3": {"name": "CYP3A4.29 (Homo sapiens; F113I) (protein)", "chain": "B1 chain with F113I, H200Q"}, "B4": {"name": "CYP3A4.31 (Homo sapiens; H324Q) (protein)", "chain": "B1 chain with H200Q, H324Q"}, "B5": {"name": "CYP3A4.32 (Homo sapiens; I335T) (protein)", "chain": "B1 chain with H200Q, I335T"}, "B6": {"name": "CYP3A4.33 (Homo sapiens; A370S) (protein)", "chain": "B1 chain with H200Q, A370S"}, "B7": {"name": "CYP3A4.34 (Homo sapiens; I427V) (protein)", "chain": "B1 chain with H200Q, I427V"}, "B8": {"name": "CYP3A4.1 (Homo sapiens) (protein)", "chain": "B1 chain with H200Q"}, "B9": {"name": "CYP3A4.3 (Homo sapiens; M445T) (protein)", "chain": "B1 chain with H200Q, M445T"}, "B10": {"name": "CYP3A4.4 (Homo sapiens; I118V) (protein)", "chain": "B1 chain with I118V, H200Q"}, "B11": {"name": "CYP3A4.5 (Homo sapiens; P218R) (protein)", "chain": "B1 chain with H200Q, P218R"}, "B12": {"name": "CYP3A4.7 (Homo sapiens; G56D) (protein)", "chain": "B1 chain with G56D, H200Q"}, "B13": {"name": "CYP3A4.8 (Homo sapiens; R130Q) (protein)", "chain": "B1 chain with R130Q, H200Q"}, "B14": {"name": "CYP3A4.9 (Homo sapiens; V170I) (protein)", "chain": "B1 chain with V170I, H200Q"}}, "substrate": "C=CC(=O)Nc1cc(Nc2nccc(-c3cn(C4CC4)c4ccccc34)n2)c(OC)cc1N(C)CCN(C)C", "test": "cells, lysate or membranes named", "key": {"[1]": {"conditions": "other: variant *24, substrate aumolertinib"}, "[2]": {"conditions": "other: variant *28 (*L22V), substrate aumolertinib"}, "[3]": {"conditions": "other: variant *29 (*F113I), substrate aumolertinib"}, "[4]": {"conditions": "other: variant *31 (*H324Q), substrate aumolertinib"}, "[5]": {"conditions": "other: variant *32 (*I335T), substrate aumolertinib"}, "[6]": {"conditions": "other: variant *33 (*A370S), substrate aumolertinib"}, "[7]": {"conditions": "other: variant *34 (*I427V), substrate aumolertinib"}, "[8]": {"conditions": "other: variant *1 (wild type), substrate aumolertinib"}, "[9]": {"conditions": "other: variant *3, substrate aumolertinib"}, "[10]": {"conditions": "other: variant *4, substrate aumolertinib"}, "[11]": {"conditions": "other: variant *5, substrate aumolertinib"}, "[12]": {"conditions": "other: variant *7, substrate aumolertinib"}, "[13]": {"conditions": "other: variant *8, substrate aumolertinib"}, "[14]": {"conditions": "other: variant *9, substrate aumolertinib"}}, "note": "Where a chain is given by its changes, count along the chain named. In names and notes the source's numbering stands.", "data": [{"protein": "B1", "values": [{"measurement": "Km", "setting": "[1]", "value": "3.732 ± 0.252", "unit": "µM"}, {"measurement": "kcat", "setting": "[1]", "value": 0.0169, "unit": "s⁻¹"}, {"measurement": "kcat/Km", "setting": "[1]", "value": 4520, "unit": "M⁻¹ s⁻¹"}]}, {"protein": "B2", "values": [{"measurement": "Km", "setting": "[2]", "value": "2.519 ± 0.054", "unit": "µM"}, {"measurement": "kcat", "setting": "[2]", "value": 0.0214, "unit": "s⁻¹"}, {"measurement": "kcat/Km", "setting": "[2]", "value": 8520, "unit": "M⁻¹ s⁻¹"}]}, {"protein": "B3", "values": [{"measurement": "Km", "setting": "[3]", "value": "4.031 ± 0.319", "unit": "µM"}, {"measurement": "kcat", "setting": "[3]", "value": 0.0509, "unit": "s⁻¹"}, {"measurement": "kcat/Km", "setting": "[3]", "value": 12600, "unit": "M⁻¹ s⁻¹"}]}, {"protein": "B4", "values": [{"measurement": "Km", "setting": "[4]", "value": "3.213 ± 0.502", "unit": "µM"}, {"measurement": "kcat", "setting": "[4]", "value": 0.0188, "unit": "s⁻¹"}, {"measurement": "kcat/Km", "setting": "[4]", "value": 5930, "unit": "M⁻¹ s⁻¹"}]}, {"protein": "B5", "values": [{"measurement": "Km", "setting": "[5]", "value": "2.963 ± 0.092", "unit": "µM"}, {"measurement": "kcat", "setting": "[5]", "value": 0.0293, "unit": "s⁻¹"}, {"measurement": "kcat/Km", "setting": "[5]", "value": 9900, "unit": "M⁻¹ s⁻¹"}]}, {"protein": "B6", "values": [{"measurement": "Km", "setting": "[6]", "value": "3.520 ± 0.403", "unit": "µM"}, {"measurement": "kcat", "setting": "[6]", "value": 0.0224, "unit": "s⁻¹"}, {"measurement": "kcat/Km", "setting": "[6]", "value": 6400, "unit": "M⁻¹ s⁻¹"}]}, {"protein": "B7", "values": [{"measurement": "Km", "setting": "[7]", "value": "5.817 ± 0.439", "unit": "µM"}, {"measurement": "kcat", "setting": "[7]", "value": 0.0122, "unit": "s⁻¹"}, {"measurement": "kcat/Km", "setting": "[7]", "value": 2100, "unit": "M⁻¹ s⁻¹"}]}, {"protein": "B8", "values": [{"measurement": "Km", "setting": "[8]", "value": "3.204 ± 0.202", "unit": "µM"}, {"measurement": "kcat", "setting": "[8]", "value": 0.0311, "unit": "s⁻¹"}, {"measurement": "kcat/Km", "setting": "[8]", "value": 9720, "unit": "M⁻¹ s⁻¹"}]}, {"protein": "B9", "values": [{"measurement": "Km", "setting": "[9]", "value": "3.631 ± 0.149", "unit": "µM"}, {"measurement": "kcat", "setting": "[9]", "value": 0.0337, "unit": "s⁻¹"}, {"measurement": "kcat/Km", "setting": "[9]", "value": 9280, "unit": "M⁻¹ s⁻¹"}]}, {"protein": "B10", "values": [{"measurement": "Km", "setting": "[10]", "value": "3.952 ± 0.389", "unit": "µM"}, {"measurement": "kcat", "setting": "[10]", "value": 0.0192, "unit": "s⁻¹"}, {"measurement": "kcat/Km", "setting": "[10]", "value": 4880, "unit": "M⁻¹ s⁻¹"}]}, {"protein": "B11", "values": [{"measurement": "Km", "setting": "[11]", "value": "10.144 ± 0.833", "unit": "µM"}, {"measurement": "kcat", "setting": "[11]", "value": 0.0314, "unit": "s⁻¹"}, {"measurement": "kcat/Km", "setting": "[11]", "value": 3100, "unit": "M⁻¹ s⁻¹"}]}, {"protein": "B12", "values": [{"measurement": "Km", "setting": "[12]", "value": "4.937 ± 0.649", "unit": "µM"}, {"measurement": "kcat", "setting": "[12]", "value": 0.00628, "unit": "s⁻¹"}, {"measurement": "kcat/Km", "setting": "[12]", "value": 1280, "unit": "M⁻¹ s⁻¹"}]}, {"protein": "B13", "values": [{"measurement": "Km", "setting": "[13]", "value": "3.158 ± 0.077", "unit": "µM"}, {"measurement": "kcat", "setting": "[13]", "value": 0.0119, "unit": "s⁻¹"}, {"measurement": "kcat/Km", "setting": "[13]", "value": 3780, "unit": "M⁻¹ s⁻¹"}]}, {"protein": "B14", "values": [{"measurement": "Km", "setting": "[14]", "value": "4.080 ± 0.370", "unit": "µM"}, {"measurement": "kcat", "setting": "[14]", "value": 0.0213, "unit": "s⁻¹"}, {"measurement": "kcat/Km", "setting": "[14]", "value": 5250, "unit": "M⁻¹ s⁻¹"}]}]}
